From US20200093786A1, “S[…] OF CANNABIS FOR TREATING MULTIPLE MYELOMA” (One World Cannabis LTD, priority 2014, published 2020)

System: RPMI8226 multiple myeloma (MM) human cell lines
Settings: for IC50: Homo sapiens, RPMI-8226, read-out: dose that caused 50% of MM cell death; for survival of RPMIS MM cells: concentration of about 20 μM and higher

| Structure (SMILES) | IC50 | survival of RPMIS MM cells |
| --- | --- | --- |
| C=C(C)[C@@H]1CCC(C)=C[C@H]1c1c(O)cc(CCCCC)cc1O [CBD, Cannabidiol] | 16 µM | about 50% |
| CCCCCc1cc(O)c2c(c1)OC(C)(C)[C@@H]1CCC(C)=C[C@@H]21 [THC, Tetrahydrocannabinol] | 22 µM | about 50% |
